Results on 37 compounds are retold here after the supplement of paper PMC10600219.

Molecules are shown by their SMILES. Structures can show the parent of a compound that is named as a salt. In all, about 2,800 compounds were measured (“cell viability relative to vehicle”: median about 0.98, lowest 2% from about 0.45 on). Some of the results follow.

The subject of this experiment is NCI-H2228 alectinib-DTP. Kind of experiment: cell viability relative to vehicle (fraction of vehicle); NCI-H2228 is an ALK-positive lung cancer line and DTP means drug-tolerant persister; higher = less growth inhibition. The following applies: 100 nM; treatment time 6 days. In a few lines: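 Drug-tolerant persister NCI-H2228 cells, produced by 13 days in 1000 nM of a targeted drug, and their parental counterparts were seeded into 384-well plates and, the following day, given the 3114-agent TargetMol anti-cancer compound library at 100 nM or DMSO vehicle. After 6 days, the CellTiter-Glo 3D Cell Viability Assay was used to read ATP. Each entry reports viability compared with vehicle-treated cells.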
Take `O=C(c1ccccc1)c1ccc2nc(NC(=O)c3csc(C4CCN(c5ncnc6ccsc56)CC4)n3)[nH]c2c1`: the cell viability is 0.998.

With `CCc1ccc(OCC(=O)Nc2ccc(F)c([N+](=O)[O-])c2)cc1`, the cell viability was found to be 0.967. With `C[C@H]1COC2(CCN(c3nc(=O)c4cc(C(F)(F)F)cc([N+](=O)[O-])c4s3)CC2)O1` the figure was 1.05. With `CC(C)C(=O)c1c(C(C)C)nn2ccccc12` [Ibudilast] the figure was 1. With `CC(=O)NC(CC(C)C)C(=O)O` (configuration not stated) [Acetylleucine], the cell viability worked out at 1.01. Next, `CCS(=O)(=O)N1CCN(c2ccc(Nc3ncc(C(N)=O)c(NC4CC4)n3)cc2)CC1` [Cerdulatinib]: 0.779. Next, `COc1cc2ccc(=O)oc2cc1OC` [Scoparone]: 0.976. For the compound `C=C1CC[C@H](O)C/C1=C/C=C1\CCC[C@]2(C)[C@@H]([C@H](C)/C=C/[C@H](C)C(C)C)CC[C@@H]12` [Vitamin D2], the cell viability was found to be 1.13.

For `Cc1ccc(C(=O)N(CCCN)[C@@H](c2oc3cc(Cl)ccc3c(=O)c2Cc2ccccc2)C(C)C)cc1`, the cell viability is 0.675. Next, `CC(C)(C)NC(=O)[C@H]1CC[C@H]2[C@@H]3CC[C@H]4NC(=O)C=C[C@]4(C)[C@H]3CC[C@]12C` [Finasteride]: 1.14; `Cc1ccc(C(=O)Cn2c3c(sc2=N)CCCC3)cc1` [Pifithrin-α]: 0.76. In turn, `C=CC[N+]1([C@H]2C[C@H]3[C@@H]4CC[C@H]5C[C@H](O)[C@@H](N6CCOCC6)C[C@]5(C)[C@H]4CC[C@]3(C)[C@H]2OC(C)=O)CCCC1` [Rocuronium bromide] showed a cell viability of 1.06. With `COc1ccc(C=C(C#N)c2cccnc2)cc1OC` the figure was 0.956. Next, `C[C@]12CC[C@H](O)CC1=CC[C@@H]1[C@@H]2CC[C@]2(C)C(c3cccnc3)=CC[C@@H]12` [Abiraterone]: 0.996; `CC(C)(C)CC(C)(C)c1ccc(OCCOCC[N+](C)(C)Cc2ccccc2)cc1` [Benzethonium chloride]: 1.1. With `Cn1nnc2c(C(N)=O)ncn2c1=O` [Temozolomide] the figure was 0.905; with `C=C1C(=O)O[C@H]2[C@H]1CC/C(C)=C/CC[C@@]1(C)O[C@@H]21` [Parthenolide], 1.01; with `COc1ccc(CCC(=O)Nc2nc3ccc(Cl)cc3s2)cc1OC`, 0.889. As for `Nc1ccccc1C(=O)C[C@H](N)C(=O)O` [L-Kynurenine], the cell viability came to 0.987. Next, `CC(=O)OCC(=O)[C@@]1(O)CC[C@H]2[C@@H]3CCC4=CC(=O)C=C[C@]4(C)[C@H]3[C@@H](O)C[C@@]21C` [Prednisolone-21-acetate]: 0.849. Next, `O=C1NC(c2cccc([N+](=O)[O-])c2)=CCN1c1ccccc1O`: 0.806. Next, `COC(=O)N[C@H](C(=O)N1CC2(CC2)C[C@H]1c1nc(-c2ccc3c(c2)C(F)(F)c2cc(-c4ccc5[nH]c([C@@H]6[C@H]7CC[C@H](C7)N6C(=O)[C@@H](NC(=O)OC)C(C)C)nc5c4)ccc2-3)c[nH]1)C(C)C` [Ledipasvir]: 1.16; `COc1ccc(CNc2nc(N3CCC[C@H]3CO)ncc2C(=O)NCc2ncccn2)cc1Cl` [Avanafil]: 0.984; `CN1CCN(C(=O)c2cc3cc(Cl)ccc3[nH]2)CC1`: 1.04.

With `CC(ONC(=O)c1cc(C(F)(F)F)cc(C(F)(F)F)c1)C(=O)Nc1ccc(Cl)cc1` (configuration not stated), the cell viability came to 1.02. With `N#CC1(c2ccc(NC(=O)c3cccnc3NCc3ccncc3)cc2)CCCC1` [Apatinib] the figure was 0.864; with `OC[C@@H](O)CN1CCN(c2ccccc2)CC1` [Levodropropizine], 1.03; with `Cc1c(Nc2ncccc2C(=O)O)cccc1C(F)(F)F` [Flunixin meglumin], 1.06. Next, `O=C(/C=C/c1cccnc1)NCCCCC1CCN(C(=O)c2ccccc2)CC1`: 0.452; `NCCc1ccc(O)c(O)c1` [Dopamine hydrochloride]: 0.957; `Nc1nc(N)c2nc(-c3cccc(O)c3)c(-c3cccc(O)c3)nc2n1`: 0.859. With `Cn1cnc2c(F)c(Nc3ccc(Br)cc3Cl)c(C(=O)NOCCO)cc21` [Selumetinib] the figure was 0.927.

As to `COc1cc(/C=C/C=O)ccc1O` [Coniferyl aldehyde], the cell viability was 1.08. Compound `CCOC(=O)c1c2c3c(cccc3[nH]c1=O)C(=O)c1ccccc1-2` displayed a cell viability of 0.964.

The compound `C[C@H](CS)C(=O)N1CCC[C@H]1C(=O)O` [Captopril] gave a cell viability of 0.999. With `C=CC(=O)N[C@H]1CCOC[C@H]1Nc1ncc2cc(-c3c(Cl)c(OC)cc(OC)c3Cl)ccc2n1` the figure was 0.906. Next, `Cc1c(-c2ccc(-c3ccccc3F)cc2)nc2ccc(F)cc2c1C(=O)O` [Brequinar]: 0.906.
